Assay results as given in PubChem BioAssay AID493208 (National Center for Advancing Translational Sciences (NCATS), 2011).
Among all 44,000 compounds or so, about 340 (0.77%) were called active. Another 5% or so got no clear call; they are omitted. Calls follow the shape of the dose curve; as a rule, active = well fitted inhibition curve with a large enough effect; inconclusive = small, poorly fitted or top-dose-only effect; inactive = flat fitted curve, though single readings scatter. Some of the results follow.

experiment: Acumen qHTS Assay for Inhibitors of the mTORC1 Signaling Pathway in MEF (Tsc2-/-, p53-/-) Cells: Sytravon; conditions: phospho-rpS6 immunofluorescence/PI, 24 h; series mostly up to 38.3 µM; activity change, negative = inhibition: at the top concentration; also: nearly all actives have a fitted effect of over 50% in size;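 as to activity change, negative = inhibition: plate controls were DMSO for no effect and rapamycin for full effect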
Method in brief: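 Tsc2-/-, p53-/- mouse embryonic fibroblasts (empty-vector line) exposed to compound 24 hrs at 37 C, fixed, immunostained for phospho-rpS6 and counterstained with propidium iodide. Acumen laser scanning gives % positive cells from Alexa 488/PI ratio, thresholded using 7.5 nM rapamycin; PI count gives viability.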
Potency is read from the fitted curve at half-maximal effect.

Row | SMILES | activity change, negative = inhibition | Potency
1 | CCOC(=O)c1cc(-c2ccccc2)n(CC(=O)N(C)c2ccc(OC)cc2)c1C | inactive: -3.07% | 
2 | CCOc1ccc(NC(=O)C(NC(=O)C2CCC(C)CC2)C(C)C)cc1 (stereo not given) | inactive: 0.916% | 
3 | COc1ccc(CNC(=O)CN(c2ccccc2)S(=O)(=O)N(C)C)cc1 | inactive: 1.38% | 
4 | CCOC(=O)c1cc2c(=O)n3ccccc3nc2n(CCCOC)c1=NC(=O)C(C)Oc1ccccc1 (stereo not given) | inactive: 0.695% | 
5 | CN(C)S(=O)(=O)c1ccc(C(=O)N2CC(=O)Nc3ccc(Br)cc3C2c2ccc(F)cc2)cc1 (stereo not given) | inactive: -18.2% | 
6 | Cc1ccc(CNC(=O)c2ccc(Cn3c(SCc4ccccc4F)nc4cccnc43)cc2)cc1 | inactive: 0% | 
7 | CC1CCN(C(=O)Cn2c(=O)oc3cc(S(=O)(=O)N4CCCCC4)ccc32)CC1 | inactive: -5.68% | 
8 | CCOc1ccc(CC(=O)NCCc2sc3nc(-c4ccc(OC)cc4)nn3c2C)cc1 | inactive: -2.64% | 
9 | Cc1cc(C)cc(NC2=CC(c3cccc(F)c3)N(c3cc(C)cc(C)c3)C2=O)c1 (stereo not given) | inactive: -0.469% | 
10 | Cc1cc(=O)n(Cc2cccc(Cl)c2)c2c1c(C)nn2-c1ccccc1 | inactive: 0.0126% | 
11 | CCN(CC)C(=O)c1sc2c(c1C)c(=O)n(-c1ccccc1)c(=O)n2CC(=O)Nc1ccc(C)cc1C | inactive: 0.771% | 
12 | Cc1cccc(-n2c(=O)c3c4c(sc3n3cnnc23)CCCC4)c1 | inactive: -13.4% | 
13 | CCN1CCN(c2c(S(=O)(=O)c3ccc(C)c(C)c3)cnc3cc(OC)c(OC)cc23)CC1 | inactive: -17.2% | 
14 | CCN(CC)S(=O)(=O)c1nnc(NC(=O)COc2ccc(Cl)cc2)s1 | inactive: 1.44% | 
15 | CCCCSc1ncnc2c1c(-c1ccccc1)cn2-c1cccc(F)c1 | inactive: -4.52% | 
16 | CCN(CC)CCNC(=O)c1ccc2c(c1)sc1nc(-c3ccc(F)cc3)cn12 | inactive: -11% | 
17 | CCOC(=O)Cn1cnc2onc(-c3ccc(F)cc3)c2c1=O | inactive: -25.6% | 
18 | COc1ccc(C(CNC(=O)COc2ccc(Cl)c(C)c2)N2CCOCC2)cc1 (stereo not given) | inactive: -0.506% | 
19 | Cc1cc(C)cc(NS(=O)(=O)c2ccc3c(c2)NC(=O)C(C)S3)c1 (stereo not given) | inactive: 5.36% | 
20 | CCOC(=O)c1c(C)oc2nc(C)nc(Nc3ccc(CC)cc3)c12 | inactive: 0.871% | 
21 | CCn1c(C(=O)N2CCC(C(=O)NCCc3ccc(OC)cc3OC)CC2)cc2sccc21 | inactive: -4.24% | 
22 | CCc1ccc(S(=O)(=O)c2nnn3c2nc(NC2CCCCCC2)c2sccc23)cc1 | inactive: -4.1% | 
23 | Cc1c(C(=O)NCc2ccccc2Br)oc2c1-c1[nH]ncc1CC2 | inactive: 1.62% | 
24 | CCOC(=O)C(CC)Sc1ccc2nnc(CCNS(=O)(=O)c3ccc(C)cc3)n2n1 (stereo not given) | inactive: 7.12% | 

Row | SMILES | activity change, negative = inhibition | Potency
25 | COc1cccc2c1Oc1ncccc1N(C(=O)Nc1ccc(F)c(Cl)c1)C2 | inactive: 0% | 
26 | Cc1ccc(C)c(CN2C(=O)c3ccccc3S(=O)c3ccc(C(=O)NCc4ccccc4)cc32)c1 (stereo not given) | inactive: -11.9% | 
27 | CCOCCCNC(=O)C1CCC(CNS(=O)(=O)c2ccc(NC(C)=O)cc2)CC1 (stereo not given) | inactive: -1.12% | 
28 | COc1ccccc1Cc1nc2ccccc2[nH]c1=O | inactive: -0.526% | 
29 | COc1ccc(NC(=O)c2ccc(-c3nc(CSc4ccccc4)c(C)o3)cc2)cc1OC | inactive: -5.67% | 
30 | CCn1cc(C(=O)N2CCN(c3cccc(Cl)c3)CC2)c(=O)c2cc(S(=O)(=O)N3CCCCC3)ccc21 | inactive: -2.53% | 
31 | COc1ccc(C(CNC(=O)c2oc3ccc(C)cc3c2C)N2CCOCC2)cc1 (stereo not given) | inactive: -1.44% | 
32 | COc1ccc(OC)c(NC(=O)N2CCN(S(=O)(=O)c3ccc4c(ccn4C)c3)CC2)c1 | inactive: 1.95% | 
33 | COc1cc(OC)cc(C(=O)Nc2ccc3nc(N4CCCCC4)cc(C)c3c2)c1 | inactive: -25.4% | 
34 | CC(C)Cn1c(=O)c2ccccc2n2c(CCC(=O)N3CCN(c4ccccc4F)CC3)nnc12 | inactive: -0.911% | 
35 | CCCn1c(-c2ccc(S(=O)(=O)N3CCOCC3)cc2)csc1=Nc1ccc(OCC)cc1 | inactive: -18% | 
36 | Cc1ccc2nc(-c3ccc(O)cc3)c(Nc3ccc4c(c3)OCCO4)n2c1 | inactive: 15.9% | 
37 | CCCSCCCNC(=O)C1CCN(c2nn3cc(-c4ccc(F)cc4)nc3s2)CC1 | inactive: -7.11% | 
38 | O=C(NCc1ccccc1Cl)C(=O)NCC(c1cccs1)S(=O)(=O)c1cccs1 (stereo not given) | inactive: -6.75% | 
39 | Cc1ccc(C)n1-c1nnc(N2CCCC(C(=O)Nc3ccc(C(C)C)cc3)C2)s1 (stereo not given) | inactive: -0.0452% | 
40 | COC(=O)c1ccccc1NC(=O)Cn1c(=O)n(Cc2ccc(C(=O)NCc3ccc4c(c3)OCO4)cc2)c(=O)c2ccccc21 | inactive: -7.2% | 
41 | COc1cccc(C(=O)c2sc3nc(-c4ccccc4)cc(C(F)(F)F)c3c2N)c1 | inactive: -11.2% | 
42 | CCOC(=O)c1c(C)oc2ncnc(Nc3ccc(OCC)cc3)c12 | inactive: -2.04% | 
43 | Cc1ccc(C)c(N2C(=O)N(Cc3cc(=O)n4ccccc4n3)c3ccccc3S2(=O)=O)c1 | inactive: -1.13% | 
44 | O=C(CN1C(=O)CCc2cc(S(=O)(=O)N3CCOCC3)ccc21)NCc1ccc(F)cc1 | inactive: 0% | 
45 | CCc1cccc(NC(=O)Nc2csc3c2CCCC3)c1 | inactive: -3.78% | 
46 | Cc1ccc(CNC(=O)c2ccc3c(c2)nc(C)n3-c2cc(C)cc(C)c2)cc1 | inactive: 6.92% | 
47 | O=C(COc1ccccc1F)Nc1ccc(-c2nc3ccccc3s2)cc1 | inactive: 1.73% | 
48 | COc1cccc(NC(=O)CNC(=O)Cn2c(C)cc3ccccc3c2=O)c1 | inactive: -17.5% | 

Row | SMILES | activity change, negative = inhibition | Potency
49 | Cc1ccc(N(CC(=O)NCCc2ccccc2)S(=O)(=O)N(C)C)cc1 | inactive: -0.21% | 
50 | COc1cc(C)ccc1OCCSc1nc2ccc(NC(=O)c3ccc(F)cc3)cc2s1 | inactive: 1.6% | 
51 | Cn1ccc2cc(S(=O)(=O)N3CCC(C(=O)NCCc4ccccc4)CC3)ccc21 | inactive: 9.12% | 
52 | CCCCOc1ccc(C(=O)Nc2ccc(-c3nc4ccccc4s3)cc2C)cc1 | inactive: -9.38% | 
53 | N#Cc1ccccc1NC(=O)Cn1cnc2onc(-c3cccc(F)c3)c2c1=O | inactive: 0% | 
54 | Nc1ncc(S(=O)(=O)NCc2ccc(Cl)cc2)cn1 | inactive: 1.81% | 
55 | COc1ccc(Cl)cc1NC(=O)Cn1cc(C(=O)c2ccncc2)c(=O)c2cc(C)ccc21 | inactive: -1.63% | 
56 | CCC(Sc1nc2cc(OC)c(OC)cc2c(=O)n1CCc1ccc(Cl)cc1)C(=O)NCCOC (stereo not given) | inactive: -7.13% | 
57 | CCOc1ccc(-c2cc(OC(=O)c3ccccc3)c3c(C)oc(C)c3c(=O)c2)cc1 | inactive: -8.34% | 
58 | Cn1nnc2c(N3CCN(c4ccccc4F)CC3)ncnc21 | inactive: 0.286% | 
59 | Cc1cc(C)cc(OCC(=O)Nc2ccc(-c3nc4ccccc4s3)cc2)c1 | inactive: -2.82% | 
60 | O=C(CSc1nc2ccccc2n1Cc1ccccc1F)NCc1ccccc1 | inactive: 0% | 
61 | Cc1ccccc1C(=O)Nc1cccc(C(=O)OCc2cc(=O)n3c4c(sc3n2)CCCC4)c1 | inactive: 0% | 
62 | Cc1ccc(-n2c(SCC(=O)NCc3ccc(F)cc3)nc3c([nH]c4ccccc43)c2=O)cc1 | inactive: -13.6% | 
63 | CCCCNC(=O)CSc1nc2cc3c(cc2c(=O)n1CCCCCC(=O)NCc1ccc2c(c1)OCO2)OCO3 | inactive: 0.194% | 
64 | COc1ccc(N(CC(=O)NCCc2ccccc2)S(=O)(=O)c2ccccc2)c(OC)c1 | inactive: 2.29% | 
65 | Cc1ccc2oc3c(c(=O)c2c1)C(c1ccccc1F)N(CCCN1CCOCC1)C3=O (stereo not given) | inactive: 8.03% | 
66 | COc1cc2c(cc1OC)C(COc1ccc(F)cc1)N(C(=O)Cc1ccc(F)cc1)CC2 (stereo not given) | inactive: 3.29% | 
67 | Cc1cc(C)cc(NC(=O)CCc2c(C)nn(-c3ccc(N4CCCC4)nn3)c2C)c1 | inactive: -4.83% | 
68 | Cc1ccc(Nc2c(-c3ccncc3)nc3ccc(C)cn23)cc1 | inactive: -14.3% | 
69 | CCOc1ccc(OCC)c(S(=O)(=O)N2CCN(c3cccc(C)c3C)CC2)c1 | inactive: -4.05% | 
70 | CCOC(=O)C1CCN(c2ncnc3c2nnn3C)CC1 | inactive: -2.3% | 
71 | Cc1ccc(CN(C(=O)COc2cccc([N+](=O)[O-])c2)c2ccccn2)cc1 | inactive: -13.9% | 
72 | CC(C)c1ccc(CNc2nc(-c3ccco3)nn2S(=O)(=O)c2ccc3ccccc3c2)cc1 | inactive: -3.74% | 

Row | SMILES | activity change, negative = inhibition | Potency
73 | Cc1cc(C)cc(N2CCn3c2nc2c3c(=O)n(Cc3ccc(Cl)cc3)c(=O)n2C)c1 | inactive: 5.24% | 
74 | O=S(=O)(c1ccccc1)c1nc(-c2ccc(Cl)cc2Cl)oc1N1CCCCCC1 | inactive: -0.031% | 
75 | COc1ccc(CNC(=O)Cn2nnc(-c3ccc(S(C)(=O)=O)cc3)n2)cc1 | inactive: -18.4% | 
76 | COc1cccc(-c2cc(C(=O)Nc3cc(OC)c(OC)c(OC)c3)on2)c1 | inactive: -1.08% | 
77 | COc1cccc2c1cc1c(=O)n(CC(=O)N3CCN(c4cc(Cl)ccc4C)CC3)nc(C)n12 | inactive: 6.96% | 
78 | O=C(CCCn1c(=O)c2cccn2c2cccnc21)NCc1ccc(F)cc1 | inactive: -8.25% | 
79 | CCC1CCCCN1CC(=O)N1CCCc2c1c(=O)oc1ccc(OCc3ccccc3)cc21 (stereo not given) | inactive: -29.3% | 
80 | CCN1CCN(c2ccc(NS(=O)(=O)c3c(C)nc4sccn4c3=O)cc2Cl)CC1 | inactive: -17.2% | 
81 | COc1ccc(CNC(=O)CCC(=O)N2CCSc3ccccc32)cc1 | inactive: -8.94% | 
82 | CCOc1ccc(-n2c(C)nc3cc(C(=O)NCCC4=CCCCC4)ccc32)cc1 | inactive: 1.1% | 
83 | CCOC(=O)c1ccc(NC(=O)C2=C(C)Nc3nc(SCc4ccc(Cl)cc4)nn3C2c2ccc(OC)cc2)cc1 (stereo not given) | inactive: -2.56% | 
84 | COc1ccc(-c2nnc(SCC(=O)Nc3ccc(Cl)cc3)s2)cc1 | inactive: 5.73% | 
85 | Cc1ccccc1NS(=O)(=O)c1ccc(Br)s1 | inactive: -6.74% | 
86 | COc1ccc(-c2nc3sc(CCNC(=O)c4cc(Cl)ccc4OC)c(C)n3n2)cc1 | inactive: -9.24% | 
87 | CN(Cc1ccccc1)S(=O)(=O)c1ccc(F)c(C(=O)Nc2cccc(Cl)c2Cl)c1 | inactive: -11.8% | 
88 | Cc1ccc(C(C)(C)C)c(OCC(=O)NCCc2nc3ccccc3[nH]2)c1 | inactive: -1.22% | 
89 | CCN(CC)c1cc2c(cc1F)c(=O)c(S(=O)(=O)c1cc(C)ccc1C)cn2Cc1ccccc1 | inactive: -1.59% | 
90 | Cc1cccc(CC2C(=O)Nc3ccccc32)c1 (stereo not given) | inactive: -13.2% | 
91 | CCOc1ccccc1-n1nnc(-c2nc(-c3ccccc3)no2)c1N | inactive: 1.75% | 
92 | CCOc1ccc(C2=NC(c3cccs3)=Nc3ccc(C(C)C)cc3N2)cc1 | inactive: -4.87% | 
93 | Cc1c(/C=C(\C#N)C(=O)Nc2cccc(Cl)c2)c2ccccc2n1Cc1ccccc1Cl | inactive: 22.4% | 
94 | CCOC(=O)c1c(NC(=O)c2ccc(S(=O)(=O)N(CCOC)CCOC)cc2)sc2c1CC(C)(C)NC2(C)C |  | active: 11.7 µM
95 | CCOC(=O)c1cccc(NC(=O)C2CCN(S(=O)(=O)c3ccc4c(c3)oc(=O)n4C)CC2)c1 | inactive: -29.5% | 
